Measurements published in PubChem BioAssay AID488969 (Vanderbilt High Throughput Screening Facility, 2010).
Over roughly 110,000 compounds, “z-score” has its median near -0.1; the highest 2% begin near 2. Some of the results follow. Calls of active or inactive are those of the source.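 Rule for the calls: active = z-score in the third read window above 3 or below -3; inactive = the rest.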

What follows are molecules tested against Metabotropic glutamate receptor 8 (Rattus norvegicus) (UniProt P70579) (assay: mGluR8 Gi/Go-coupled signaling modulation – cell-based, rat, thallium flux, HTS, primary screen (AID 488969)). Settings: HEK293 rat mGluR8, GIRK (G protein-gated inwardly rectifying potassium channel) thallium flux, FluoZin2; at 10 µM; stronger effect = higher value; submaximal glutamate (EC20) added with thallium.
Chain of UniProt P70579 (P70579 whole entry, looked up): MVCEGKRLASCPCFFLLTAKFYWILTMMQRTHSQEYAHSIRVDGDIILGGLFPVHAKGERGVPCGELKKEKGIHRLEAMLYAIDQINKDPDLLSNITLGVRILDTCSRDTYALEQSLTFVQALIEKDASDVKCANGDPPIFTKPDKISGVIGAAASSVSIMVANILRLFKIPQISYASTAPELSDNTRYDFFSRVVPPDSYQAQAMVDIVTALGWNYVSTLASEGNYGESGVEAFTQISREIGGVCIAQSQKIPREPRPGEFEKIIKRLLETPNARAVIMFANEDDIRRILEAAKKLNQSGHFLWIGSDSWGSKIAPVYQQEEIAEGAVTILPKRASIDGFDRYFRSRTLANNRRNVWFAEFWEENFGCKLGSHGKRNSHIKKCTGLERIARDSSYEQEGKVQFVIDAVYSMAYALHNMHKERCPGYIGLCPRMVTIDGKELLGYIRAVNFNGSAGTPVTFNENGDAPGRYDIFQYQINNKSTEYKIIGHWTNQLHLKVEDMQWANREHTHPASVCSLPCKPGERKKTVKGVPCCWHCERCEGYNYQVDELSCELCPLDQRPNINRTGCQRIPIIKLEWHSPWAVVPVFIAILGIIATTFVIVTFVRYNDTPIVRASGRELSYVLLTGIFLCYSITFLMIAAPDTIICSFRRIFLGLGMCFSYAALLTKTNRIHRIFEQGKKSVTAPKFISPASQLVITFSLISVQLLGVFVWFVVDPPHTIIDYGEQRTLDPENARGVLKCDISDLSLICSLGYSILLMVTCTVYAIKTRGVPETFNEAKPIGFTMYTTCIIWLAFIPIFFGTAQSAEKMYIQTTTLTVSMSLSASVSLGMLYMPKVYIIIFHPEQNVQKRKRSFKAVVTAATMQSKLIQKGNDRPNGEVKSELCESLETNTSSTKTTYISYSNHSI

Compound | z-score
COC(=O)c1cn(CC(=O)N2CCCCC2C)c2ccccc12 (centres undefined) | -0.213
O=C(OCC#CCSc1nnc(-c2ccncc2)o1)c1cccs1 | -0.0957
O=C(CSc1nnnn1-c1cccc2c1CCCC2)N1CCOCC1 | 0.398
CCOc1ccc(NC(=O)CSc2nnc(Cn3cnc([N+](=O)[O-])n3)n2C)cc1 | -0.0324
c1nc(N2CCOCC2)c2[nH]cnc2n1 | 0.445
c1ccc(CCNc2nc3ccccc3s2)cc1 | -0.152
O=C1OCCC1Sc1nnc(-c2ccc(Br)cc2)o1 (centres undefined) | -2.15
Cc1ccc(NC(=S)NCC2CCCO2)cc1C (centres undefined) | 0.128
Cc1ccc(S(=O)(=O)N2CCCCC2)cc1NS(=O)(=O)c1cccc(C(=O)O)c1 | -0.116
CN(C(=O)C1CCOC1)c1nnc(-c2cnccn2)s1 (centres undefined) | -0.856
CNC(=O)CSc1nnc(COc2ccc(Cl)cc2)n1CCOC | 1.63
C=CCn1c(SCC(=O)c2ccc(CNC(C)=O)o2)nc2ccccc2c1=O | 0.598
O=CNC(=O)c1ccccc1C(=O)O | 0.026
COc1ccccc1N1CCN(C(c2cccs2)c2nnnn2C2CCCC2)CC1 (centres undefined) | -0.535
CCCCOc1c(Br)cc(/C=C2\N=C(C)OC2=O)cc1OCC | 0.376
COC(=O)CN(c1cccc(F)c1)S(C)(=O)=O | 0.265
Cn1c(NCc2ccco2)nc2c1c(=O)n(Cc1ccc(Cl)cc1)c(=O)n2C | -0.607
O=C(Nc1n[nH]c(C2CCCCC2)n1)C1CCCCC1 | -0.0165
CC(=O)N1c2ccc3ccccc3c2C2C=CCC2C1c1ccc(Br)cc1 (centres undefined) | -0.0981
COC(=O)c1ccc(Nc2nc(C)cc(C)n2)cc1 | -0.976
O=C(CCS(=O)(=O)c1cccc2nsnc12)NC1CCCCC1 | -0.258
Cc1ccc(OCC(O)Cn2c(NCCc3ccccc3)nc3c2c(=O)[nH]c(=O)n3C)cc1 (centres undefined) | 1.2
COc1cc(OC)c(NC(=O)CCc2nc(-c3cccs3)no2)cc1Cl | -0.447

Compound | z-score
Cc1ccccc1NC(C)C(=O)N/N=C/c1ccccc1OCc1cccc(Br)c1 (centres undefined) | -0.61
Cc1ccc(CCN2CC(C(=O)NCc3ccco3)CC2=O)cc1 (centres undefined) | 0.656
COc1ccc(-n2c(SCC(=O)Nc3ccccc3)nc3c(c2=O)SCC3)cc1 | -0.458
COc1cccc2cc(C(=O)CC3(O)C(=O)N(Cc4ccccc4)c4ccccc43)c(=O)oc12 (centres undefined) | -0.219
Cc1ccc(C(=O)N/N=C(\CC(C)C)c2ccccc2)cc1 | 0.26
O=C(Nc1cnn(Cc2ccc(F)cc2)c1)C(c1ccccc1)c1ccccc1 | 0.0792
CCCCN(CCCC)Cc1cc2ccccc2c2c1COC2 | 0.829
CCc1ccc(OCC(O)CNC(C)(C)C)cc1 (centres undefined) | 0.829
CCN(CC)C(=O)CSc1nc(O)cc(=O)n1CC | -0.943
CCC(=O)NCCNc1nc2cc(C)c(C)cc2cc1C#N | -0.187
CCCC1C2C(=O)N(c3ccccc3)C(=O)C2ON1c1ccccc1 (centres undefined) | -0.305
O=C1CCCc2oc3ccc(O)cc3c21 | -0.105
Cc1cc(C)nc(NC2=NCC(=O)N2c2ccccc2Br)n1 | 0.578
CCOC(=O)C1C(c2cccc(Cl)c2Cl)NC(=O)NC1(O)C(F)(F)F (centres undefined) | -0.0385
CC(C)CSc1nnc2c(n1)[nH]c1ccccc12 | -1.18
C=C(C)COc1ccc(-c2n[nH]c(C)c2-c2ccccc2OC)c(O)c1 | 1.53
Cc1ccc2[nH]c(=O)c(CN(CCO)Cc3nnnn3CCc3ccccc3)cc2c1 | 0.327
CCOC(CNC(=O)c1cccn2c(=O)c3cc(Cl)ccc3nc12)OCC | -0.11
Cn1cccc1CC(=O)NNC(=O)Nc1ccc(F)cc1 | -0.0202
CC(=O)N(C)c1ccc(NC(=O)c2ccccc2C(=O)O)cc1 | -0.182
CCOC(=O)CSc1n[nH]c(NC(=O)c2cccc(C(F)(F)F)c2)n1 | -0.122
O=C(Cc1ccccn1)Nc1ccccc1 | 0.105
Cc1ccc(S(=O)(=O)N(CC(=O)N/N=C/c2cccc(C)c2)c2cccc3cccnc23)cc1 | -0.642

Compound | z-score
Cc1csc(NC(=O)Cc2c[nH]c3ccccc23)n1 | -0.137
CSCCC(NC(=O)c1ccccc1)C(=O)NCc1ccco1 (centres undefined) | 0.405
Cc1sc(NC(=O)CN(C)C2CCCCC2)nc1-c1ccc2c(c1)CCN2S(=O)(=O)c1ccccc1 | -0.199
CCCn1nnc(NC(=O)c2cccc(OCC)c2)n1 | -0.378
COc1ccccc1NC(=S)N/N=C/c1cccc(C)c1 | 0.651
CC(Oc1cccc(Cl)c1)C(=O)Nc1cc(=O)n(C)c(=O)n1C (centres undefined) | -0.0453
Cc1cc(N2CCOCC2)ccc1/C=C1\NC(=O)N(CC(=O)Nc2ccccc2C)C1=O | -0.066
O=C(CSc1nc2ccccc2o1)Nc1ccccc1N1CCOCC1 | -0.771
COc1cc(/C=N/N2CCN(C3c4ccccc4-c4ccccc43)CC2)cc(OC)c1O | -0.191
COc1ccccc1N1CCN(CCCNC(=O)Nc2ccccc2)CC1 | -0.426
Cc1nn(S(=O)(=O)c2ccc([N+](=O)[O-])cc2)c(C)c1Sc1ccccc1 | -0.0239
CCCN1C2CCCC1CC(NC(=O)C1CCCCC1)C2 (centres undefined) | -0.199
Cc1ccc(O/C=C2\OC(=O)c3ccccc32)cc1 | 0.0779
COc1ccc(Cl)cc1NC(=O)Nc1ccc(Br)cn1 | 0.253
CCCCC(=O)Nc1cccc(NC(=O)c2ccc(Br)cc2)c1 | 0.0277
Oc1ccc(C=Nc2ccccc2-c2nc3ccccc3[nH]2)c(O)c1 | -0.247
CCOC(=O)c1ccccc1NC(=S)N1CC(C)CC(C)C1 (centres undefined) | -0.159
CC(O)CNc1nc2c(c(=O)n(C)c(=O)n2C)n1CCc1ccccc1 (centres undefined) | -0.23
CCN1C(=O)OC2(CCCCC2)C1(C)O (centres undefined) | -0.0204
CC1=C(C(=O)Nc2ccccc2C)C(c2ccccc2)NC(=O)N1 (centres undefined) | -0.43
CCOC(=O)N1CCN(C(=O)CSc2nnc(-c3ccc(C)c(C)c3)o2)CC1 | -0.295
N#Cc1ccc(CSCC(=O)O)cc1 | 0.0977
CNC(=O)CSc1nnc(-c2cccc(S(=O)(=O)N3CCOCC3)c2)n1-c1ccc(F)cc1 | 0.182

Compound | z-score
O=C(CN1C(=O)NC2NC(=O)NC21)NN=C1CCCC1 (centres undefined) | -0.395
O=C(CN(Cc1ccco1)C(=O)c1ccc(Cl)cc1)Nc1c(Cl)cc(Cl)cc1Cl | -0.276
Cc1cc(NC(=O)CSc2nnc(CNc3cccc(C(F)(F)F)c3)n2Cc2ccco2)no1 | -0.233
CCCc1cc(=O)n2[nH]c(C)nc2n1 | 0.153
CCc1ccc(S(=O)(=O)NCc2cn3c(C)csc3n2)s1 | 0.337
COc1ccc(C2c3c(ccc4ccccc34)Oc3ncn4nc(Cc5ccc(OC)c(OC)c5)nc4c32)cc1 (centres undefined) | -0.169
Cc1cc(Cl)ccc1NC(=S)NCCN1CCOCC1 | 0.224
CCOC(=O)c1ccc(NC(=O)c2ccc3c(c2)OCO3)cc1 | -0.427
COc1ccc2c(C)cc(SCC(=O)c3ccc4c(c3)OCO4)nc2c1 | 0.554
CCc1ccc(N(C(=O)Cc2cccs2)C(C(=O)NC2CCCCC2)c2cn(C)nc2C)cc1 (centres undefined) | -0.152
COc1cccc(Oc2cn[nH]c2-c2ccc(O)cc2O)c1 | -0.382
O=C(CSc1nc2ccccc2c(=O)n1NC(=O)c1ccccc1)c1ccccc1 | 0.299
CCOC(=O)c1nc2nc(C)c(Cl)c(=O)n2[nH]1 | 0.555
Cc1ccc(-c2nnc(Nc3ccc(C(=O)N(C)C)cc3)c3ccccc23)cc1S(=O)(=O)NCC1CCCO1 (centres undefined) | -0.0331
Cc1ccc(S(=O)(=O)N2CC3CCC2C3)cc1 (centres undefined) | 0.802
C=CCn1cc(/C=N/NC(=O)COc2cccc3cccnc23)c2ccccc21 | -0.515
CCCC1=C(C(=O)OCC)C(c2cc(Cl)cc(OC)c2OCc2ccccc2)NC(=O)N1 (centres undefined) | 0.293
O=S(=O)(N/N=C\c1ccc(-c2ccccc2Cl)o1)c1ccccc1 | -0.0372
CCc1cc2c3c(c1)/C(=C1/SC(N)=NC1=O)C(=O)N3C(C)(C)C=C2C | -0.0547
CC(C)CC(=O)Nc1ccc(Nc2ccccc2)cc1 | -0.238
COc1ccc(N2C(=O)CC(NC34CC5CC(CC(C5)C3)C4)C2=O)c(OC)c1 (centres undefined) | 0.417
Cc1ccc(S(=O)(=O)Nc2cccnc2)cc1 | -0.295
CC1(C)CC(=O)c2c(nn(-c3ccccc3)c2N)C1 | -0.372

Compound | z-score
[O-][N+]1=C(c2cccs2)CN(O)C1 | -0.145
Cn1c(=O)c2[nH]c(NCC3CCCO3)nc2n(-c2ccccc2)c1=O (centres undefined) | 0.0423
O=C(CCc1ccc(S(=O)(=O)N2CCOCC2)cc1)NCCc1ccccn1 | 1.44
Cc1cc(O)ccc1Nc1nc(-c2sc(N)nc2C)cs1 | -0.368
C[N+](C)(C)CCCCCCC(=O)/C=N/O | 0.559
Cc1cccc(Nc2nnc(SCC(=O)NCc3cccs3)s2)c1C | -0.0186
O=C(COc1ccc(Br)cc1Cl)NC(=O)NCc1ccccc1 | 0.301
CCC1SC2=NC(C)=C(C(=O)OC)C(c3ccc(C)cc3)N2C1=O (centres undefined) | -0.234
CC(=O)c1cccc(NC(=O)c2nccnc2C(=O)O)c1 | -0.311
COC(=O)c1ccc(-n2c(C)cc(C(=O)CSc3ccc(NC(C)=O)cc3)c2C)cc1 | active: 3.5
Cc1ccc(C(=O)COC(=O)CCc2nc3ccccc3[nH]c2=O)cc1C | 0.642
O=C(Nc1cccc(C(F)(F)F)c1)c1cc2c(=O)c3ccccc3oc2nc1C(F)(F)F | -0.121
COc1ccc(S(=O)(=O)NCc2ccc(C(=O)N3CCc4ccccc4C3)cc2)cc1 | -0.293
O=[N+]([O-])c1ccc(-c2cn(-c3ccc(Cl)cc3)c(=S)[nH]2)cc1 | 2.83
CCCc1cc(C(=O)NCc2cccnc2)no1 | -0.0421
O=C(Cn1c(=O)oc2cc(S(=O)(=O)N3CCCC3)ccc21)N1CCCC1 | 0.458
CC(=O)Nc1sc(N)nc1-c1ccccc1 | -0.119
COc1ccc(N2CC(C(=O)OCC(=O)c3cccc(OC)c3)CC2=O)cc1 (centres undefined) | 0.459
O=C(Cn1cnc2c(nnn2Cc2ccc(F)cc2)c1=O)OCc1ccccc1 | 0.0615
CC(C)(C)c1sc(N)nc1-c1ccccc1 | -0.349
CN(C)CCCNCCCCNC(=O)/C=N/O | 0.0617
CCCC(=O)Nc1nn(C)c2nc3c(C)cccc3cc12 | -0.168
